Experimental findings from the supplement of paper PMC12423691 are described below.

This is one part of the list. Binding of human transcription factors and regulators to the viral nucleoprotein by AlphaScreen, crude cell-free proteins, amounts not normalised, one pass. Fold of the Venus control; higher = more signal. No active / inactive call. Single-pass screen; sequences are the whole Swiss-Prot entries looked up by name.

To fix the notation:
B1: SCRT1, Q9BWW7 (protein)
chain: MPRSFLVKKVKLDAFSSADLESAYGRARSDLGAPLHDKGYLSDYVGPSSVYDGDAEAALLKGPSPEPMYAAAVRGELGPAAAGSAPPPTPRPELATAAGGYINGDAAVSEGYAADAFFITDGRSRRKASNAGAAAAPSTASAAAPDGDAGGGGGAGGRSLGSGPGGRGGTRAGAGTEARAGPGAAGAGGRHACGECGKTYATSSNLSRHKQTHRSLDSQLARRCPTCGKVYVSMPAMAMHLLTHDLRHKCGVCGKAFSRPWLLQGHMRSHTGEKPFGCAHCGKAFADRSNLRAHMQTHSAFKHFQCKRCKKSFALKSYLNKHYESACFKGGAGGPAAPAPPQLSPVQA
B2: ATF5, Q9Y2D1 (protein)
chain: MSLLATLGLELDRALLPASGLGWLVDYGKLPPAPAPLAPYEVLGGALEGGLPVGGEPLAGDGFSDWMTERVDFTALLPLEPPLPPGTLPQPSPTPPDLEAMASLLKKELEQMEDFFLDAPPLPPPSPPPLPPPPLPPAPSLPLSLPSFDLPQPPVLDTLDLLAIYCRNEAGQEEVGMPPLPPPQQPPPPSPPQPSRLAPYPHPATTRGDRKQKKRDQNKSAALRYRQRKRAEGEALEGECQGLEARNRELKERAESVEREIQYVKDLLIEVYKARSQRTRSC
B3: DACH1, Q9UI36 (protein)
chain: MAVPAALIPPTQLVPPQPPISTSASSSGTTTSTSSATSSPAPSIGPPASSGPTLFRPEPIASAAAAAATVTSTGGGGGGGGSGGGGGSSGNGGGGGGGGGGSNCNPNLAAASNGSGGGGGGISAGGGVASSTPINASTGSSSSSSSSSSSSSSSSSSSSSSSSCGPLPGKPVYSTPSPVENTPQNNECKMVDLRGAKVASFTVEGCELICLPQAFDLFLKHLVGGLHTVYTKLKRLEITPVVCNVEQVRILRGLGAIQPGVNRCKLISRKDFETLYNDCTNASSRPGRPPKRTQSVTSPENSHIMPHSVPGLMSPGIIPPTGLTAAAAAAAAATNAAIAEAMKVKKIKLEAMSNYHASNNQHGADSENGDMNSSVGSSDGSWDKETLPSSPSQGPQASITHPRMPGARSLPLSHPLNHLQQSHLLPNGLELPFMMMPHPLIPVSLPPASVTMAMSQMNHLSTIANMAAAAQVQSPPSRVETSVIKERVPDSPSPAPSLEEGRRPGSHPSSHRSSSVSSSPARTESSSDRIPVHQNGLSMNQMLMGLSPNVLPGPKEGDLAGHDMGHESKRMHIEKDETPLSTPTARDSLDKLSLTGHGQPLPPGFPSPFLFPDGLSSIETLLTNIQGLLKVAIDNARAQEKQVQLEKTELKMDFLRERELRETLEKQLAMEQKNRAIVQKRLKKEKKAKRKLQEALEFETKRREQAEQTLKQAASTDSLRVLNDSLTPEIEADRSGGRTDAERTIQDGRLYLKTTVMY

The target of the assay is nucleoprotein N of Crimean-Congo hemorrhagic fever virus. In words: AlphaScreen luminescence signal relative to Venus negative control (fold); higher = stronger binding to CCHFV N. The method, then:
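AlphaScreen binding of cell-free made, FLAG-GST-tagged human transcription factors and regulators (crude translation products) to biotinylated N protein; signal as fold of the FLAG-GST-Venus control. One pass.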
A general note: Bead proximity is the source of the signal in Alpha formats.
In the case of B1, the AlphaScreen luminescence signal was 1.3. Next, B2: 4.88. The value for B3 was 2.33.
